# Source: the supplement of paper PMC8728848
# Some of the results follow.
# B1: Epa1 (Candida glabrata) (protein)
# chain: MGSSHHHHHHSSGLVPRGSHMTSSNDISLASKDPTTFPLGCSPDITTPKKGLSMELYSYDFRKKGSYPCWDAAYLDPNYPRTGYKSHRLLAKVDGVTGNINFYYHATKGCTPQLGHLPASYNYPKPLTMTNFTMLLYGYFRPKVTGFHTFTISADDLLFVNFGAGNAFDCCRRDSSADHFGNYQAYAIWGSKTAKDELTVHLDAGVYYPIRLFYNNREYDGALSFTFKTESNENTVSDFSEYFFSLDDTEEGCPGLISYD
# What was measured:
# Assay in all cases: glycan array binding signal (z-score within array); higher = stronger binding
# Conditions in all cases: glycan notation: IUPAC condensed, linker removed
# [1] = biological target: Neu5Ac(a2-3)Gal(b1-3)GlcNAc(b1-6)GalNAc
# Procedure, shortened: (§1)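 Arrays were curated from the Consortium for Functional Glycomics database, 3228 in total, and kept only where the protein sequence was available. Binding is expressed as a within-array Z-score. This score was averaged across arrays of the same protein sequence at different concentrations or buffers and across linkers, and negative values can be read as non-binding.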
# [2] = biological target: Neu5Ac(a2-3)Gal(b1-3)GlcNAc6S
# Procedure, shortened: as §1
# [3] = biological target: Neu5Ac(a2-3)Gal(b1-3)[Fuc(a1-4)]GlcNAc
# Procedure, shortened: as §1
# [4] = biological target: Neu5Ac(a2-3)Gal(b1-3)[Fuc(a1-4)]GlcNAc(b1-3)Gal(b1-3)[Fuc(a1-4)]GlcNAc
# Procedure, shortened: as §1
# [5] = biological target: Neu5Ac(a2-3)Gal(b1-3)[Fuc(a1-4)]GlcNAc(b1-3)Gal(b1-4)[Fuc(a1-3)]GlcNAc
# Procedure, shortened: as §1
# [6] = biological target: Neu5Ac(a2-3)Gal(b1-3)[GlcNAc(b1-6)]GalNAc
# Procedure, shortened: as §1
# [7] = biological target: Neu5Ac(a2-3)Gal(b1-3)[Neu5Ac(a2-6)]GalNAc
# Procedure, shortened: as §1
# [8] = biological target: Neu5Ac(a2-3)Gal(b1-3)[Neu5Ac(a2-6)]GlcNAc(b1-3)[Fuc(a1-3)[Gal(b1-4)]GlcNAc(b1-6)]Gal(b1-4)Glc
# Procedure, shortened: as §1
# [9] = biological target: Neu5Ac(a2-3)Gal(b1-3)]Neu5Ac(a2-3)Gal(b1-4)]GlcNAc
# Procedure, shortened: as §1
# Neu5Ac(a2-3)Gal(b1-4)Glc = biological target: Neu5Ac(a2-3)Gal(b1-4)Glc
# Procedure, shortened: as §1
# [10] = biological target: Neu5Ac(a2-3)Gal(b1-4)GlcNAc
# Procedure, shortened: as §1
# [11] = biological target: Neu5Ac(a2-3)Gal(b1-4)GlcNAc(b1-2)Man
# Procedure, shortened: as §1
# [12] = biological target: Neu5Ac(a2-3)Gal(b1-4)GlcNAc(b1-2)Man(a1-3)[GlcNAc(b1-4)][Neu5Ac(a2-3)Gal(b1-4)GlcNAc(b1-2)Man(a1-6)]Man(b1-4)GlcNAc(b1-4)GlcNAc
# Procedure, shortened: as §1
# [13] = biological target: Neu5Ac(a2-3)Gal(b1-4)GlcNAc(b1-2)Man(a1-3)[Neu5Ac(a2-3)Gal(b1-4)GlcNAc(b1-2)Man(a1-6)]Man(b1-4)GlcNAc(b1-4)GlcNAc
# Procedure, shortened: as §1
# [14] = biological target: Neu5Ac(a2-3)Gal(b1-4)GlcNAc(b1-2)Man(a1-3)[Neu5Ac(a2-3)Gal(b1-4)GlcNAc(b1-2)Man(a1-6)]Man(b1-4)GlcNAc(b1-4)[Fuc(a1-6)]GlcNAc
# Procedure, shortened: as §1
# [15] = biological target: Neu5Ac(a2-3)Gal(b1-4)GlcNAc(b1-2)Man(a1-3)[Neu5Ac(a2-6)Gal(b1-4)GlcNAc(b1-2)Man(a1-6)]Man(b1-4)GlcNAc(b1-4)GlcNAc
# Procedure, shortened: as §1
# [16] = biological target: Neu5Ac(a2-3)Gal(b1-4)GlcNAc(b1-2)[Neu5Ac(a2-3)Gal(b1-4)GlcNAc(b1-4)]Man(a1-3)[GlcNAc(b1-4)][Neu5Ac(a2-3)Gal(b1-4)GlcNAc(b1-2)[Neu5Ac(a2-3)Gal(b1-4)GlcNAc(b1-6)]Man(a1-6)]Man(b1-4)GlcNAc(b1-4)GlcNAc
# Procedure, shortened: as §1
# [17] = biological target: Neu5Ac(a2-3)Gal(b1-4)GlcNAc(b1-2)[Neu5Ac(a2-3)Gal(b1-4)GlcNAc(b1-4)]Man(a1-3)[GlcNAc(b1-4)][Neu5Ac(a2-3)Gal(b1-4)GlcNAc(b1-4)Man(a1-6)]Man(b1-4)GlcNAc(b1-4)GlcNAc
# Procedure, shortened: as §1
# [18] = biological target: Neu5Ac(a2-3)Gal(b1-4)GlcNAc(b1-2)[Neu5Ac(a2-3)Gal(b1-4)GlcNAc(b1-6)]Man(a1-6)[Neu5Ac(a2-3)Gal(b1-4)GlcNAc(b1-2)Man(a1-3)][GlcNAc(b1-4)]Man(b1-4)GlcNAc(b1-4)GlcNAc
# Procedure, shortened: as §1
# [19] = biological target: Neu5Ac(a2-3)Gal(b1-4)GlcNAc(b1-3)Gal
# Procedure, shortened: as §1
# [20] = biological target: Neu5Ac(a2-3)Gal(b1-4)GlcNAc(b1-3)Gal(b1-3)GlcNAc
# Procedure, shortened: as §1
# [21] = biological target: Neu5Ac(a2-3)Gal(b1-4)GlcNAc(b1-3)Gal(b1-4)GlcNAc
# Procedure, shortened: as §1
# [22] = biological target: Neu5Ac(a2-3)Gal(b1-4)GlcNAc(b1-3)Gal(b1-4)GlcNAc(b1-2)Man(a1-3)[Neu5Ac(a2-3)Gal(b1-4)GlcNAc(b1-3)Gal(b1-4)GlcNAc(b1-2)Man(a1-6)]Man(b1-4)GlcNAc(b1-4)GlcNAc
# Procedure, shortened: as §1
# [23] = biological target: Neu5Ac(a2-3)Gal(b1-4)GlcNAc(b1-3)Gal(b1-4)GlcNAc(b1-3)Gal(b1-4)GlcNAc
# Procedure, shortened: as §1
# [24] = biological target: Neu5Ac(a2-3)Gal(b1-4)GlcNAc(b1-3)Gal(b1-4)GlcNAc(b1-3)Gal(b1-4)GlcNAc(b1-2)Man(a1-3)[Neu5Ac(a2-3)Gal(b1-4)GlcNAc(b1-3)Gal(b1-4)GlcNAc(b1-3)Gal(b1-4)GlcNAc(b1-2)Man(a1-6)]GalNAc
# Procedure, shortened: as §1
# [25] = biological target: Neu5Ac(a2-3)Gal(b1-4)GlcNAc(b1-3)Gal(b1-4)GlcNAc(b1-3)GalNAc
# Procedure, shortened: as §1
# [26] = biological target: Neu5Ac(a2-3)Gal(b1-4)GlcNAc(b1-3)Gal(b1-4)GlcNAc(b1-3)[Neu5Ac(a2-3)Gal(b1-4)GlcNAc(b1-3)Gal(b1-4)GlcNAc(b1-6)]GalNAc
# Procedure, shortened: as §1
# [27] = biological target: Neu5Ac(a2-3)Gal(b1-4)GlcNAc(b1-3)Gal(b1-4)GlcNAc(b1-6)[Gal(b1-3)]GalNAc
# Procedure, shortened: as §1
# [28] = biological target: Neu5Ac(a2-3)Gal(b1-4)GlcNAc(b1-3)Gal(b1-4)[Fuc(a1-3)]GlcNAc
# Procedure, shortened: as §1
# [29] = biological target: Neu5Ac(a2-3)Gal(b1-4)GlcNAc(b1-3)GalNAc
# Procedure, shortened: as §1
binder,measurement,setting,value
B1,glycan array binding signal (z-score),[1],-0.293
same,glycan array binding signal (z-score),[2],-0.295
same,glycan array binding signal (z-score),[3],-0.296
same,glycan array binding signal (z-score),[4],-0.318
same,glycan array binding signal (z-score),[5],-0.238
same,glycan array binding signal (z-score),[6],-0.299
same,glycan array binding signal (z-score),[7],-0.166
same,glycan array binding signal (z-score),[8],-0.173
same,glycan array binding signal (z-score),[9],-0.296
same,glycan array binding signal (z-score),Neu5Ac(a2-3)Gal(b1-4)Glc,-0.266
same,glycan array binding signal (z-score),[10],-0.268
same,glycan array binding signal (z-score),[11],-0.258
same,glycan array binding signal (z-score),[12],-0.289
same,glycan array binding signal (z-score),[13],-0.256
same,glycan array binding signal (z-score),[14],-0.283
same,glycan array binding signal (z-score),[15],-0.269
same,glycan array binding signal (z-score),[16],-0.332
same,glycan array binding signal (z-score),[17],-0.317
same,glycan array binding signal (z-score),[18],-0.338
same,glycan array binding signal (z-score),[19],-0.288
same,glycan array binding signal (z-score),[20],-0.304
same,glycan array binding signal (z-score),[21],-0.304
same,glycan array binding signal (z-score),[22],-0.257
same,glycan array binding signal (z-score),[23],-0.26
same,glycan array binding signal (z-score),[24],-0.222
same,glycan array binding signal (z-score),[25],-0.251
same,glycan array binding signal (z-score),[26],-0.054
same,glycan array binding signal (z-score),[27],0.779
same,glycan array binding signal (z-score),[28],-0.397
same,glycan array binding signal (z-score),[29],-0.309
